About 14,000 (4.5%) of roughly 310,000 compounds showed an effect of 50% or more. The effect is printed as a negative number. The list shows a part of the results.
Each compound was assayed against human ether-à-go-go-related gene (hERG) potassium channel (human, UniProt Q12809) (assay: primary screen, population patch clamp on CHO cells stably expressing hERG).
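Further: peak tail current of the secondary pulse compared with the same well before compound.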

human ether-à-go-go-related gene (hERG) potassium channel, sequence (Q12809 whole entry, looked up): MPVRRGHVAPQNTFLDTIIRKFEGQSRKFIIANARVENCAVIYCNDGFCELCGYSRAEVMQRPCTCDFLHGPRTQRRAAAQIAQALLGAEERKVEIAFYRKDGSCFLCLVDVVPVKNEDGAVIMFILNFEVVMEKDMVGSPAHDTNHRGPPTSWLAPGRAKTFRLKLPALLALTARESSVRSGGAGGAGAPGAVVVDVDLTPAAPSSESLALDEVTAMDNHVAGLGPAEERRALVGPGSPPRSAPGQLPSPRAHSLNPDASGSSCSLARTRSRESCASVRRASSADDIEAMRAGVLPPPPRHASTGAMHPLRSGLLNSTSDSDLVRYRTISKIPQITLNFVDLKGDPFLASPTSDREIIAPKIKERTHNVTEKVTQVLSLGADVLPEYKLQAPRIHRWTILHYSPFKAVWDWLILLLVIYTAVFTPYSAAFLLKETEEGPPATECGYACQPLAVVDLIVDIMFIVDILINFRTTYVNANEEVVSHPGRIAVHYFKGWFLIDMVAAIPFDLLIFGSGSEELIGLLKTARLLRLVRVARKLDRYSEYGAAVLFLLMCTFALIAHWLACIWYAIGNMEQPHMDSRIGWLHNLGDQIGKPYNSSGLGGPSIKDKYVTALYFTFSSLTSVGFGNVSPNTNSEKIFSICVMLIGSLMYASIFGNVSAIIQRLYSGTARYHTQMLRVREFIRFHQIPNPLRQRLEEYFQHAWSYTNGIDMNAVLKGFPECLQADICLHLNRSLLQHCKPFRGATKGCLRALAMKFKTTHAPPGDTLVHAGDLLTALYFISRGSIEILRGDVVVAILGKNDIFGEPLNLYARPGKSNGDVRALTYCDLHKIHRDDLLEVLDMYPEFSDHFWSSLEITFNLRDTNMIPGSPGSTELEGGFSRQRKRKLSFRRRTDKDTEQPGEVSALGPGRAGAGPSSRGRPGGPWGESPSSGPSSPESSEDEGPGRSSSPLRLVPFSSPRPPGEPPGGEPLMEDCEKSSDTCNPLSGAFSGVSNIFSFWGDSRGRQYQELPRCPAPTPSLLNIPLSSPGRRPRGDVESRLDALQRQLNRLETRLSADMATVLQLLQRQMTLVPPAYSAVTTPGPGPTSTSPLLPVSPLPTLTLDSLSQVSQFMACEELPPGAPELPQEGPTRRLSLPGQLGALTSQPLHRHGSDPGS

Structure (SMILES)	hERG current change (%, negative = inhibition) at 10uM
COC(=O)c1ccc(N2CCOCC2)c(NC(=O)c2ccco2)c1	1.95%
CC(=O)N(NC(=O)c1ccccc1Cl)C1CC(=O)N(c2ccc(C)cc2)C1=O (stereo not shown)	14.1%
N#Cc1c(N)nc2c(c1N)CC(CCl)O2 (stereo not shown)	2.98%
COc1cccc(CN(Cc2ccco2)S(=O)(=O)c2ccc(S(=O)(=O)NCc3ccccc3)cc2)c1OC	7.41%
O=C(Nc1cc(Cl)cc(Cl)c1)Nc1cnccn1	5.58%
CCCCCOCC1CC(C/C(C)=N/Nc2nc(-c3ccccc3)cs2)C(=O)O1 (stereo not shown)	-1.48%
COc1ccc(S(=O)(=O)N2CCN(Cc3cc(=O)n4ccccc4n3)CC2)cc1	-31.4%
N#Cc1ccccc1CSc1ccc(-c2nc3ccccc3[nH]2)cn1	16.4%
O=C(CNS(=O)(=O)c1ccc(Br)s1)NCC1COc2ccccc2O1 (stereo not shown)	0.753%
N=c1c(C(=O)NC2CCCCC2)cc2c(=O)n3ccccc3nc2n1CCc1ccccc1	-81.1%
CCOC(=O)CSC(C)C(=O)Nc1nnc(C(C)C)s1 (stereo not shown)	-3.58%
Cc1cc(NC(=O)c2cc([N+](=O)[O-])cc([N+](=O)[O-])c2)n(-c2ccccc2)n1	7.63%
O=C(NC1CCCC1)C1c2ccccc2C(=O)N1C1CCCCC1 (stereo not shown)	-2.27%
CN(C)CCN1C(=O)C(O)=C(C(=O)c2ccco2)C1c1ccccc1F (stereo not shown)	11.9%
COc1ccc(S(=O)(=O)N(CC(=O)N2CCOCC2)Cc2ccccc2)cc1C	-18.8%
CCN(CC)S(=O)(=O)c1cccc(NC(=O)COC(=O)CNC(=O)c2cccc(F)c2)c1	-31.4%
CC1CCCN(C(C(=O)Nc2ccc3c(c2)OCO3)c2ccccc2)C1 (stereo not shown)	-19.7%
N/C(Cc1ccc([N+](=O)[O-])cc1)=N\OC(=O)C1CCCCC1	-3.44%
CCn1c(CCC(N)=O)nnc1SCC(=O)c1cc(C)n(C2CC2)c1C	-19.4%
O=C(CSc1nnc(SCc2ccc(Cl)cc2)s1)N/N=C/c1ccc(C(=O)O)cc1	24.6%
CN(C)c1nc(SCc2ccc(Cl)cc2)nc2c1CCCC2	13.1%
COc1ccc(N2CCN(c3nc(-c4cccs4)nc4ccccc34)CC2)cc1	14.4%

Structure (SMILES)	hERG current change (%, negative = inhibition) at 10uM
Cc1ccc(O)c(NC(=O)C2=CC(c3ccco3)=NS(=O)(=O)N2C)c1	-3.33%
O=C(NC1CCN(C(=O)Nc2cccc(F)c2)CC1)C1CCCCC1	-2.55%
CCOC(=O)CN(C(=O)CCC(=O)Nc1cc(C)on1)C(C(=O)NC1CCCC1)c1cccnc1 (stereo not shown)	-34.7%
O=S(=O)(/N=C(/Nc1ccc(F)cc1F)c1ccccc1)c1ccccc1	-10.4%
O=C(Nc1ccc(OCc2ccccc2)cc1)Nc1cccnc1	10.9%
Cc1ccccc1OCc1nc(-c2ccc(NC(=O)c3cccs3)cc2)no1	12.1%
CCCCc1ccc(NC(=O)c2c(C)noc2C)cc1	-5.77%
CC1C=CCC2C(=O)N(c3cccc(C(=O)Nc4ccc(F)cc4)c3)C(=O)C12 (stereo not shown)	-39.8%
C[C@H](NC(N)=O)C(=O)N1CCN(S(=O)(=O)c2ccc3ccccc3c2)CC1	-44.2%
CCOC(=O)C1C(c2ccccc2)C(C(=O)OCC)S(=O)(=O)C(CCN(CC)CC)S1(=O)=O (stereo not shown)	15.9%
CN1CCCN(C(=O)c2c(F)cccc2Cl)CC1	28.3%
CSc1cccc(NC(=O)N2CCCC(CNS(=O)(=O)Cc3ccccc3)C2)c1 (stereo not shown)	-37.1%
CCOC(=O)COc1ccc(S(=O)(=O)N2CCN(c3ccc(OC)cc3)CC2)cc1	0.759%
COc1cccc(CC(=O)Nc2ccc3nc(C)sc3c2)c1	8.73%
O=C(CSc1ncn(-c2ccccc2)n1)Nc1nc(-c2ccccc2)cs1	-11.3%
CC(=O)NC(Cc1cc(C)ccc1C)C(=O)N1CCN(C(=O)c2ccc([N+](=O)[O-])cc2)CC1 (stereo not shown)	-30.2%
O=S(=O)(NCc1ccc2c(c1)OCO2)c1ccc2oc3ccccc3c2c1	-1.28%
O=C(O)c1cccc(-c2ccc(/C=N/n3cnnc3)o2)c1	15.1%
COc1ccc(OCCOC(=O)CNC(=O)c2cccc(C)c2)cc1	-15.7%
Cc1cc(NC(=O)CCN2CCN(CCO)CC2)ccc1Br.Cl	-4.69%
CC(=O)Nc1ccc(C(=O)Nc2ccc3c(c2)OCCO3)cc1	6.76%
